In US20250205344A1, “2,4-DIOXOTETRAHYDROPYRIMIDINYL DERATIVES AS DEGRONS IN PROTACS” (GLAXOSMITHKLINE INTELLECTUAL PROPERTY DEVELOPMENT LIMITED, priority 2022, published 2025):
Some entries share one result that the patent states for a list of compounds. The name of at least one read-out is uncertain.

Molecular target: T1, Androgen Receptor (Homo sapiens, UniProt P10275, T878A)
T1 construct: the AR gene was modified, using CRISPR/Cas9 editing, so the expressed AR protein included an 11 amino acid HiBiT tag; endogenous in cells; host or cells: clonal LnCaP-derived line, AR gene edited by CRISPR/Cas9
T1 sequence (P10275 whole entry T878A): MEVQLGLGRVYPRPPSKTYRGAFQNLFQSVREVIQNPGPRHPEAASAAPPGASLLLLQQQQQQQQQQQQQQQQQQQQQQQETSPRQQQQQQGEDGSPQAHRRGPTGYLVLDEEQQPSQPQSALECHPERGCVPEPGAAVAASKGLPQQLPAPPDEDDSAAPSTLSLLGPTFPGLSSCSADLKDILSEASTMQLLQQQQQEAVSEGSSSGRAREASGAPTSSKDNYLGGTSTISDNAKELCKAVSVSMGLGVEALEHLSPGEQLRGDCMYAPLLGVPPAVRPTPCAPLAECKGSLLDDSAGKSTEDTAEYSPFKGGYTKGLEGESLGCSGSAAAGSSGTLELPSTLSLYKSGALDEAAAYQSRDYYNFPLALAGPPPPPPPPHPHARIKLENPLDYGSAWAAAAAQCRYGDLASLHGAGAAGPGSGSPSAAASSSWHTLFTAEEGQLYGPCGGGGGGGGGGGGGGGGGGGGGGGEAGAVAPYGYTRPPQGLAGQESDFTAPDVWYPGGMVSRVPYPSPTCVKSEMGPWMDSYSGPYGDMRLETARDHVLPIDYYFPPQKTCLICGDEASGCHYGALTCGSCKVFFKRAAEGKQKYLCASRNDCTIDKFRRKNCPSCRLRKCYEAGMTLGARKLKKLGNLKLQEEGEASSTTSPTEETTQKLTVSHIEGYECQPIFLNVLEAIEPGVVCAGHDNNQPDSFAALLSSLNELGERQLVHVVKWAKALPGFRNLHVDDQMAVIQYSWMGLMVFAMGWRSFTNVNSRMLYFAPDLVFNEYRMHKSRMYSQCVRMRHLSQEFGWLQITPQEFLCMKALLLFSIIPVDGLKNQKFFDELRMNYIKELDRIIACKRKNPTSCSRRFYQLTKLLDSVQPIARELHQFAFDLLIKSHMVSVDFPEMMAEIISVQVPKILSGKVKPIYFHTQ
T1 sequence (Q96SW2 whole entry partner): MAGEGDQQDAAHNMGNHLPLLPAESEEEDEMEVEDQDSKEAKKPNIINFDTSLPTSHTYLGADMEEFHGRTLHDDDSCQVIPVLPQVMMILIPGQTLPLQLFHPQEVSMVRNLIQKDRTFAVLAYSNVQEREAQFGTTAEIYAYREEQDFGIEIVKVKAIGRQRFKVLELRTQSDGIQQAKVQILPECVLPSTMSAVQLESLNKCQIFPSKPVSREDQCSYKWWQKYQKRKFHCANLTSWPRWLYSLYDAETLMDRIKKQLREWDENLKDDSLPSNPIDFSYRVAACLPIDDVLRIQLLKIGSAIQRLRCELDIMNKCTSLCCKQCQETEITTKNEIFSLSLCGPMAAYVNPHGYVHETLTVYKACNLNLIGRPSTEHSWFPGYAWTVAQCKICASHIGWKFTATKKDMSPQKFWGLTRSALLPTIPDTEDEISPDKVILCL
T1 sequence (Q16531 whole entry partner): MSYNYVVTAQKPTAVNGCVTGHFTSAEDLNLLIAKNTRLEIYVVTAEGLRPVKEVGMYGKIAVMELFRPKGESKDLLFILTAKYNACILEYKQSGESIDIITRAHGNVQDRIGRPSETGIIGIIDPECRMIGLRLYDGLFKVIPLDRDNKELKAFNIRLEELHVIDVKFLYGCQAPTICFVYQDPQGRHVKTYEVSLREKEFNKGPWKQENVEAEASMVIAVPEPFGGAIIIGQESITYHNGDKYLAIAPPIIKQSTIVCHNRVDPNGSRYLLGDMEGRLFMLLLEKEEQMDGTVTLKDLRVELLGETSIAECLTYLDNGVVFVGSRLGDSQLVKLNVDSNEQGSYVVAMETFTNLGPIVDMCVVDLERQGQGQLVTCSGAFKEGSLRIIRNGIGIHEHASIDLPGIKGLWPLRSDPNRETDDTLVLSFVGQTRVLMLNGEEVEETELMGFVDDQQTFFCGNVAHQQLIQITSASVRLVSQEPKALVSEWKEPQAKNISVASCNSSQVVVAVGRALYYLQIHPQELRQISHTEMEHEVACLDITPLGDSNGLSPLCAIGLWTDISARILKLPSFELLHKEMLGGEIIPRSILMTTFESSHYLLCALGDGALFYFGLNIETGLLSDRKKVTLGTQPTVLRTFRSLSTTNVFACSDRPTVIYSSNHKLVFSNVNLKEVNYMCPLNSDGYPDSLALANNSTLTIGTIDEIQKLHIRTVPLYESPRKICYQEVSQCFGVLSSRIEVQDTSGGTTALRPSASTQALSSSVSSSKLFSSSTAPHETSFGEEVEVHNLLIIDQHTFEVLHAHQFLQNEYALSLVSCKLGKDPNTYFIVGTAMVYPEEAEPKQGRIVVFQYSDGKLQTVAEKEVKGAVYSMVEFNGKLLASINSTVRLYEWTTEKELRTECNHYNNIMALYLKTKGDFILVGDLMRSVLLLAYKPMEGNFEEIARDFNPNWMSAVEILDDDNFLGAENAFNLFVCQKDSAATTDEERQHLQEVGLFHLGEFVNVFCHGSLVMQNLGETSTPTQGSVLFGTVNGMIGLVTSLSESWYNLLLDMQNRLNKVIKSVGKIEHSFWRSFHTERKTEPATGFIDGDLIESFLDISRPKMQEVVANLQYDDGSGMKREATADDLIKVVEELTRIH
Assay: Androgen Receptor Degradation Assay (Nano-Glo HiBiT)
Type: cell-based
Conditions: HiBiT-tagged AR in human LnCaP cells, 18 h
Procedure: Degradation of Androgen Receptor protein in human LnCaP cells treated with PROTACs was quantified using the Nano-Glo® HiBiT Lytic Detection System (Promega) in 384 well assay plate format. A clonal LnCaP derived cell line was first established in which the AR gene was modified, using CRISPR/Cas9 editing, so the expressed AR protein included an 11 amino acid HiBiT tag at its amino-terminus. 10 mM DMSO stock solutions of PROTACs were prepared and diluted across an 11 concentration, 3 fold increment range, and 25 nL dispensed into a white opaque bottomed 384 well assay plate (Thermofisher) using an acoustic ECHO dispenser (Labcyte). […] For the assay, cells were detached from flask and resuspended with assay medium (FluoroBrite™ DMEM supplemented with 10% heat inactivated FBS, penicillin 50 U/mL and streptomycin 50 ug/mL (Thermofisher)). The cell suspension was centrifuged at 400 g for 5 min and the pellet resuspended in assay medium. 25 μL of cell suspension containing 10,000 cells was dispensed into each well of the assay plate containing the test compounds, which was then incubated for 18 h at 37° C./5% CO2. Control wells were included on each assay plate, with assay medium without cells being the no AR remaining 100% effect control, and cells treated with DMSO vehicle only, without PROTAC, the 0% effect control. 25 μL of Nano-Glo® HiBiT lysis buffer supplemented with LgBiT protein and Nano-Glo® substrate (Promega) was added to each well and the plate shaken at 500 rpm for 10 min at room temperature. The intensity of luminescence was measured using a PHERAstar microplate reader (BMG Labtech) and the % AR protein remaining in each well calculated by normalising the raw luminescence value to the above control wells. Parameters corresponding to the potency and efficacy estimates of the PROTACs were obtained from these normalised luminescence values using software (IDBS ActivityBase). These included the DC50 and the Dmax estimates. Two versions of the DC50, called relative DC50 and absolute DC50, were typically generated. These are the inflection point of a fitted 4 parameter sigmoidal response curve and the interpolated concentration of PROTAC corresponding to 50% of the protein being degraded, respectively. The Dmax parameter was the maximum experimentally observed degradation and the asymptote max parameter the fitted response curve asymptote maximum.

SMILES	mean relative pDC50	also measured
CC(C)n1ccc2c(N3CCC(=O)NC3=O)cc(C(=O)N3CCN(CC4CCN(c5ccc(C(=O)N[C@H]6CC[C@H](Oc7ccc(C#N)c(Cl)c7)CC6)nn5)CC4)CC3)cc21 [EAR79, N-((1r,4r)-4-(3-Chloro-4-cyanophenoxy)cyclohexyl)-6-(4-((4-(4-(2,4-dioxotetrahydropyrimidin-1(2H)-yl)-1-isopropyl-1H-indole-6-carbonyl)piperazin-1-yl)methyl)piperidin-1-yl)pyridazine-3-carboxamide]	≥ 6.0	–
CC(C)n1ccc2c(N3CCC(=O)NC3=O)cc(C(=O)N3CCN(CC4CCN(c5ccc(C(=O)N[C@H]6CC[C@H](Oc7ccc(C#N)c(Cl)c7)CC6)cn5)CC4)CC3)cc21 [EAR80, N-((1r,4r)-4-(3-Chloro-4-cyanophenoxy)cyclohexyl)-6-(4-((4-(4-(2,4-dioxotetrahydropyrimidin-1(2H)-yl)-1-isopropyl-1H-indole-6-carbonyl)piperazin-1-yl)methyl)piperidin-1-yl)nicotinamide]	≥ 6.0	–
CC(C)n1ccc2c(N3CCC(=O)NC3=O)cc(C(=O)N3CCC4(CCCN(Cc5ccc(C(=O)N[C@H]6CC[C@H](Oc7ccc(C#N)c(Cl)c7)CC6)cc5)C4)CC3)cc21 [EAR81, N-((1r,4r)-4-(3-Chloro-4-cyanophenoxy)cyclohexyl)-4-((9-(4-(2,4-dioxotetrahydropyrimidin-1(2H)-yl)-1-isopropyl-1H-indole-6-carbonyl)-2,9-diazaspiro[5.5]undecan-2-yl)methyl)benzamide]	≥ 6.0	mean asymptote max: > 70%
CC(C)n1ccc2c(N3CCC(=O)NC3=O)cc(C(=O)N3CCC4(CCCN(CCCCCc5ccc(C(=O)N[C@H]6CC[C@H](Oc7ccc(C#N)c(Cl)c7)CC6)cc5)C4)CC3)cc21 [EAR83, N-((1r,4r)-4-(3-Chloro-4-cyanophenoxy)cyclohexyl)-4-(5-(9-(4-(2,4-dioxotetrahydropyrimidin-1(2H)-yl)-1-isopropyl-1H-indole-6-carbonyl)-2,9-diazaspiro[5.5]undecan-2-yl)pentyl)benzamide]	≥ 8.0	–
CC(C)n1ccc2c(N3CCC(=O)NC3=O)cc(C(=O)N3CCC4(CCN(Cc5ccc(C(=O)N[C@H]6CC[C@H](Oc7ccc(C#N)c(Cl)c7)CC6)cc5)CC4)CC3)cc21 [EAR84, N-((1r,4r)-4-(3-Chloro-4-cyanophenoxy)cyclohexyl)-4-((9-(4-(2,4-dioxotetrahydropyrimidin-1(2H)-yl)-1-isopropyl-1H-indole-6-carbonyl)-3,9-diazaspiro[5.5]undecan-3-yl)methyl)benzamide]	≥ 6.0	–
CC(C)n1ccc2c(N3CCC(=O)NC3=O)cc(C(=O)N3CCC4(CCN(CCCc5ccc(C(=O)N[C@H]6CC[C@H](Oc7ccc(C#N)c(Cl)c7)CC6)cc5)CC4)CC3)cc21 [EAR85, N-((1r,4r)-4-(3-Chloro-4-cyanophenoxy)cyclohexyl)-4-(3-(9-(4-(2,4-dioxotetrahydropyrimidin-1(2H)-yl)-1-isopropyl-1H-indole-6-carbonyl)-3,9-diazaspiro[5.5]undecan-3-yl)propyl)benzamide]	≥ 6.0	–
CC(C)n1ccc2c(N3CCC(=O)NC3=O)cc(C(=O)N3CCCC34CCN(CCCCCCc3ccc(C(=O)N[C@H]5CC[C@H](Oc6ccc(C#N)c(Cl)c6)CC5)cc3)CC4)cc21 [EAR86, N-((1r,4r)-4-(3-Chloro-4-cyanophenoxy)cyclohexyl)-4-(6-(1-(4-(2,4-dioxotetrahydropyrimidin-1(2H)-yl)-1-isopropyl-1H-indole-6-carbonyl)-1,8-diazaspiro[4.5]decan-8-yl)hexyl)benzamide]	≥ 7.0	mean relative pDC50 (listed as Example EAR86): ≥ 6.0
CC(C)n1ccc2c(N3CCC(=O)NC3=O)cc(C(=O)N3CCN(CCCCCCc4ccc(C(=O)N[C@H]5C(C)(C)[C@H](Oc6ccc(C#N)c(C(F)(F)F)c6)C5(C)C)cc4)CC3)cc21 [EAR87, N-((1r,3r)-3-(4-Cyano-3-(trifluoromethyl)phenoxy)-2,2,4,4-tetramethylcyclobutyl)-4-(6-(4-(4-(2,4-dioxotetrahydropyrimidin-1(2H)-yl)-1-isopropyl-1H-indole-6-carbonyl)piperazin-1-yl)hexyl)benzamide]	≥ 6.0	–
N#Cc1ccc(O[C@H]2CC[C@H](NC(=O)c3ccc(N4CCO[C@@H](CN5CCC(n6ccc7c(N8CCC(=O)NC8=O)cccc76)CC5)C4)nn3)CC2)cc1Cl [EAR125, N-((1r,4S)-4-(3-Chloro-4-cyanophenoxy)cyclohexyl)-6-((S)-2-((4-(4-(2,4-dioxotetrahydropyrimidin-1(2H)-yl)-1H-indol-1-yl)piperidin-1-yl)methyl)morpholino)pyridazine-3-carboxamide]	–	mean asymptote max: > 70%
Cl.N#Cc1ccc(O[C@H]2CC[C@H](NC(=O)c3ccc(N4CCC(CN5CCC(n6ncc7c(N8CCC(=O)NC8=O)c(F)ccc76)CC5)CC4)nn3)CC2)cc1Cl [EAR140, N-((1r,4r)-4-(3-Chloro-4-cyanophenoxy)cyclohexyl)-6-(4-((4-(4-(2,4-dioxotetrahydropyrimidin-1(2H)-yl)-5-fluoro-1H-indazol-1-yl)piperidin-1-yl)methyl)piperidin-1-yl)pyridazine-3-carboxamide, hydrochloride]	–	mean asymptote max (hydrochloride): > 70%
N#Cc1ccc(O[C@H]2CC[C@H](NC(=O)c3ccc(N4CCC[C@H](CN5CCC(n6ccc7c(N8CCC(=O)NC8=O)cccc76)CC5)C4)nn3)CC2)cc1Cl [EAR142, N-((1r,4R)-4-(3-chloro-4-cyanophenoxy)cyclohexyl)-6-((R)-3-((4-(4-(2,4-dioxotetrahydropyrimidin-1(2H)-yl)-1H-indol-1-yl)piperidin-1-yl)methyl)piperidin-1-yl)pyridazine-3-carboxamide]	–	mean asymptote max: > 70%
N#Cc1ccc(O[C@H]2CC[C@H](NC(=O)c3ccc(N4CCC(CN5CCC(n6ncc7c(N8CCC(=O)NC8=O)cc(C(F)(F)F)cc76)CC5)CC4)nn3)CC2)cc1Cl [EAR161, N-((1r,4r)-4-(3-Chloro-4-cyanophenoxy)cyclohexyl)-6-(4-((4-(4-(2,4-dioxotetrahydropyrimidin-1(2H)-yl)-6-(trifluoromethyl)-1H-indazol-1-yl)piperidin-1-yl)methyl)piperidin-1-yl)pyridazine-3-carboxamide]	–	mean asymptote max: > 70%
N#Cc1ccc(O[C@H]2CC[C@H](NC(=O)c3ccc(N4CCC(CN5CCC(F)(Cn6ccc7c(N8CCC(=O)NC8=O)cccc76)CC5)CC4)nn3)CC2)cc1Cl [EAR168, N-((1r,4r)-4-(3-Chloro-4-cyanophenoxy)cyclohexyl)-6-(4-((4-((4-(2,4-dioxotetrahydropyrimidin-1(2H)-yl)-1H-indol-1-yl)methyl)-4-fluoropiperidin-1-yl)methyl)piperidin-1-yl)pyridazine-3-carboxamide]	≥ 8.0	–
N#Cc1ccc(O[C@H]2CC[C@H](NC(=O)c3ccc(N4CCC(CN5CCC(n6ccc7c(N8CCC(=O)NC8=O)nc(Cl)nc76)CC5)CC4)nn3)CC2)cc1Cl [EAR175, 6-(4-((4-(2-Chloro-4-(2,4-dioxotetrahydropyrimidin-1(2H)-yl)-7H-pyrrolo[2,3-d]pyrimidin-7-yl)piperidin-1-yl)methyl)piperidin-1-yl)-N-((1r,4r)-4-(3-chloro-4-cyanophenoxy)cyclohexyl)pyridazine-3-carboxamide]	≥ 8.0	–
N#Cc1ccc(O[C@H]2CC[C@H](NC(=O)c3ccc(N4CCC(CN5CCC(c6ncc7c(N8CCC(=O)NC8=O)cccn67)CC5)CC4)nn3)CC2)cc1Cl [EAR177, N-((1r,4r)-4-(3-Chloro-4-cyanophenoxy)cyclohexyl)-6-(4-((4-(8-(2,4-dioxotetrahydropyrimidin-1(2H)-yl)imidazo[1,5-a]pyridin-3-yl)piperidin-1-yl)methyl)piperidin-1-yl)pyridazine-3-carboxamide]	≥ 8.0	–
Cl.N#Cc1ccc(O[C@H]2CC[C@H](NC(=O)c3ccc(N4CCC(CN5CCC(CCn6ccc7c(N8CCC(=O)NC8=O)cccc76)CC5)CC4)nn3)CC2)cc1Cl [EAR179, N-((1r,4r)-4-(3-chloro-4-cyanophenoxy)cyclohexyl)-6-(4-((4-(2-(4-(2,4-dioxotetrahydropyrimidin-1(2H)-yl)-1H-indol-1-yl)ethyl)piperidin-1-yl)methyl)piperidin-1-yl)pyridazine-3-carboxamide hydrochloride]	–	mean relative pDC50 (hydrochloride): ≥ 8.0
N#Cc1ccc(O[C@H]2CC[C@H](NC(=O)c3ccc(CN4CCC(n5ccc6c(N7CCC(=O)NC7=O)cccc65)CC4)cc3)CC2)cc1Cl [EAR180, N-((1r,4r)-4-(3-Chloro-4-cyanophenoxy)cyclohexyl)-4-((4-(4-(2,4-dioxotetrahydropyrimidin-1(2H)-yl)-1H-indol-1-yl)piperidin-1-yl)methyl)benzamide]	≥ 6.0	–
